Experimental data from PubChem BioAssay AID588342 (National Center for Advancing Translational Sciences (NCATS), 2011).
In all, about 360,000 compounds went through this assay and about 25,000 (6.9%) were called active. Inconclusive means that the source gave no clear call. Such entries were picked first, then a sample of the others. The call rests on the fitted dose curve; in most records, active means well fitted inhibition curve with a large enough effect; inconclusive means small, poorly fitted or top-dose-only effect; inactive means flat fitted curve, though single readings scatter. Potencies of inconclusive entries are doubtful fits and often do not repeat.
Further: nearly all actives have a fitted effect of over 55% in size.
Tags describe the fitted curve by direction and shape.
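Wherever activity change, negative = inhibition is given: plate controls were vehicle for no effect and reference inhibitor for full effect.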

What follows are compounds tested against Luciferin 4-monooxygenase (Photinus pyralis) (UniProt P08659) (assay: qHTS profiling assay for firefly luciferase inhibitor/activator using purifed enzyme and Km concentrations of substrates (counterscreen for miR-21 project)). Settings: purified FLuc, luminescence inhibition; series mostly up to 57.5 µM; activity change, negative = inhibition: at the top concentration.
Chain of UniProt P08659 (P08659 whole entry, looked up): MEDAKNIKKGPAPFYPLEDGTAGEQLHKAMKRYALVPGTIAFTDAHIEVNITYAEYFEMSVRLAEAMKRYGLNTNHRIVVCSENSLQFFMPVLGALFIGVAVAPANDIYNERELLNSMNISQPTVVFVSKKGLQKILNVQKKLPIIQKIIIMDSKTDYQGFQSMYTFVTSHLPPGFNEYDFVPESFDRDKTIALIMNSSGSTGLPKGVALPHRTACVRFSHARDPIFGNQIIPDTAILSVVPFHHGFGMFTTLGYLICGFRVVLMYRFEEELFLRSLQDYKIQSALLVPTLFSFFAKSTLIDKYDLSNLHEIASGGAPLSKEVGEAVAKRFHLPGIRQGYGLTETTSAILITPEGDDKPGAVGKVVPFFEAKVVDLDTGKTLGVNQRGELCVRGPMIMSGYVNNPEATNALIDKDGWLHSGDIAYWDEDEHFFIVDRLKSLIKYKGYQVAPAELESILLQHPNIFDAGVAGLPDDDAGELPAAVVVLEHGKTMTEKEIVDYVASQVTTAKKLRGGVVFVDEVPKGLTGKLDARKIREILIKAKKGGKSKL
From the text: MLPCN Grant: 1 R21 NS059478-01 (miR-21 grant) Assay Provider: NCGC NCGC Assay Overview: Firefly (Photinus pyralis) luciferase is one of the most commonly used transcriptional reporters for a number of reasons. It is considered one of the more dynamically responsive reporters -that is, responsive to changes in reporter transcription - as it requires no post-translational modifications and is enzymatically active directly after protein synthesis (Wood, 1998). Additionally, the half-life of the luciferase protein is short relative to other reporter-gene products (Wood, 1995). Whereas reporters with long half-lives potentially allow for increased signal due to accumulation of reporter-gene product, once accumulated in the cell, dynamic changes in reporter-gene expression may be difficult to detect(Fan and Wood, 2007; Almond et al., 2004). It has been shown that wild-type P. pyralis luciferase has a half-life of approximately […] hours in mammalian cells (Thompson et al., 1991). Firefly luciferase reporter-gene assays are also generally considered one of the most sensitive assay types (Wood, 1995; Wood, 1998). Although light produced in a bioluminescence reaction is of lower intensity than that produced during fluorescence emission, this is offset by little to no background light inherent to luminescent assays. Thus the luciferase reporter can be expressed at much lower levels than fluorescent proteins while still providing robust signal. # However, it was initially observed, in 1991, by Thompson et al., that compounds that resemble the substrates of firefly luciferase (FLuc) can act as competitive inhibitors of the enzyme, and that these compounds, upon interaction with luciferase in the cell, can actually stabilize the protein and increase its half-life. Accumulated intracellular FLuc protein can be measured as an increase in luminescence signal, upon addition of detection reagents (which contain high concentrations of FLuc substrates) commonly used in high-throughput screening. In cell-based reporter gene assays that use FLuc as the reporter gene to quantitate the potential influence of a given compound against the target biology, this apparent increase in luminescence can mistakenly be interpreted as identification of a compound that is active against the target of interest. This is the case for the miR-21 FLuc reporter gene assay used to identify inhibitors of the miR-21 pathway (PubChem AID 2289) - compounds of interest will inhibit miR-21 biogenesis/expression or activity, and are identified by causing an increase in luminescence, due to increased FLuc translation. However, FLuc inhibitory compounds that stabilize the FLuc protein will give an identical read-out, making it difficult to distinguish compounds that are active against the target from those active against FLuc. Previous profiling work to determine the prevalence of compounds that affect FLuc enzymatic activity (PubChem AID 411) identified that ~3% of the MLSMR library (then at ~72K) inhibited FLuc. […] Since the MLSMR had grown to ~350K compounds, and since it was expected that a significant percentage of compounds found active in the miR-21 FLuc assay would be FLuc inhibitors, the library was screened for activity against FLuc using a biochemical assay of purified FLuc and KM concentrations of FLuc substrates (D-luciferin and ATP).
NCGC Assay Protocol Summary: Reagents: 50mM Tris acetate, pH 7.5; 10mM Mg acetate; 10uM D-luciferin (Sigma #L9504); 10uM ATP; 0.01% Tween-20; 0.05% BSA; 10nM P. pyralis luciferase (Sigma #L9506) Control compounds used were two known firefly luciferase inhibitors (compounds (2) and (5) in Auld et al., 2010), and DMSO. […]
For CCc1nnc(NS(=O)(=O)c2ccc(NC(=O)c3ccccc3C)cc2)s1, the Potency was inconclusive: 19 µM [inhibitor, partial curve].
For O=C(CNC(=O)c1ccccc1Br)N/N=C/c1ccc(O)cc1, the Potency was inconclusive: 37.9 µM [inhibitor, partial curve, poor fit].
COc1cccc(-c2ccc3c(N)c(C(=O)Nc4ccccc4C)sc3n2)c1 was tested, and the Potency was inconclusive: 15.1 µM [inhibitor, partial curve, poor fit].
With C/C(=N/OC(=O)CC(C)C)c1cc(-c2ccc(Cl)cc2)no1 the Potency was inconclusive: 3.38 µM [inhibitor, full curve].
In the case of COc1ccc(N(C)C(=O)c2cc3c(s2)-c2ccccc2OC3)cc1, the Potency is reported as inconclusive: 13.5 µM [inhibitor, partial curve, poor fit].
In the case of Cc1ccc(OCC(=O)NC(=S)Nc2cccc(NC(=O)c3ccccc3)c2)cc1, the Potency is reported as inconclusive: 15.1 µM [inhibitor, partial curve, poor fit].
In the case of Cc1ccc(Cl)cc1N1CCN(C(=O)C2CCCN(Cc3nc(-c4cccc(Cl)c4)oc3C)C2)CC1 (stereo not drawn), the Potency is reported as inconclusive: 37.9 µM [inhibitor, partial curve, poor fit].
CCOc1ccc(S(=O)(=O)N2CCN(C(=O)c3ccc(-n4cncn4)c([N+](=O)[O-])c3)CC2)cc1 was tested, and the “activity change, negative = inhibition” value was inactive: 4.52%.
With Cc1ccc(NC(=O)Cn2c(=O)ccc3cc(S(=O)(=O)N4CCCC4)ccc32)cc1N(C)C the “activity change, negative = inhibition” value was inactive: -1.32%.
With CS(=O)(=O)N(Cc1ccc(Cl)cc1)c1ccc(C(=O)NCCSc2ccccn2)cc1 the “activity change, negative = inhibition” value was inactive: 1.77%.
O=C(Nc1ccc(CN2CCOCC2)cc1)c1ccc(-c2cccc([N+](=O)[O-])c2)o1 was tested, and the Potency was inconclusive: 16.9 µM [inhibitor, partial curve].
COc1ccc(CCNC(=O)C(=O)NCC(c2cccnc2)N2CCN(c3ccccc3)CC2)cc1 (stereo not drawn) was tested, and the Potency was inconclusive: 23.9 µM [inhibitor, partial curve, poor fit].
For O=C(Nc1ccccc1)OCc1cnc(Cl)s1, the Potency was inconclusive: 30.1 µM [inhibitor, partial curve, poor fit].
With COc1cc(OC)cc(C(=O)NC(C(=O)Nc2ccc3c(c2)OCCO3)C(C)C)c1 (stereo not drawn) the Potency was inconclusive: 23.9 µM [inhibitor, single point].
With O=C(O)C(Cc1ccccc1)N1C(=O)/C(=C/c2cccs2)SC1=S (stereo not drawn) the Potency was inconclusive: 26.9 µM [inhibitor, partial curve].
For CCCc1ccc(OCCNC(=O)c2ccccc2Br)cc1, the Potency was inconclusive: 30.1 µM [inhibitor, partial curve, poor fit].
Cc1cc(-c2ccc(S(=O)(=O)Nc3cccc(Cl)c3C)cc2)on1 was tested, and the Potency was inconclusive: 16.9 µM [inhibitor, partial curve].
Cc1ccc(NC(=O)COc2cccc3c2OC(C)(C)C3)c(O)c1 was tested, and the Potency was inconclusive: 10.7 µM [inhibitor, partial curve, poor fit].
For Cc1ccc(C2=NC3(CCCC3)NC2=S)cc1, the Potency was inconclusive: 6.75 µM [inhibitor, partial curve].
In the case of O=C(CC1C(=O)N(c2ccccc2)C(=O)N1C1CCCCC1)Nc1ccccc1 (stereo not drawn), the “activity change, negative = inhibition” value is reported as inactive: -4.89%.
For Cc1cccc(C(=O)Nc2cccc(OCc3cc(=O)n4ccccc4n3)c2)c1, the “activity change, negative = inhibition” value was inactive: 4.42%.
COc1cc(OC)c(NC(=O)c2c3c(nc4ccccc24)C(=O)N(C2CCCCC2)C3)cc1Cl was tested, and the Potency was inconclusive: 3.38 µM [inhibitor, full curve].
CC(=O)c1cccc(NC(=O)c2nc(-c3ccccc3)n(-c3cccc(C)c3)n2)c1 was tested, and the Potency was inconclusive: 13.5 µM [inhibitor, partial curve].
With Cc1cccc(C(=O)N/N=C/c2cc(Br)c(Br)o2)c1 the Potency was inconclusive: 23.9 µM [inhibitor, single point].
In the case of CCC(C)NC(=O)CSc1nc2cc3c(cc2c(=O)n1CCCCCC(=O)NCc1ccc(OC)cc1)OCO3 (stereo not drawn), the “activity change, negative = inhibition” value is reported as inactive: -2.08%.
With Cc1cccc(N(CC(=O)Nc2ccc(-c3nc4ccc(C)cc4s3)cc2)S(C)(=O)=O)c1 the Potency was active: 5.36 µM.
For Cc1ccc2occ(CC(=O)N3CCN(c4cccc(Cl)c4)CC3)c2c1, the “activity change, negative = inhibition” value was inactive: -7.83%.
For COc1ccc(N/C=C2\CCc3ccccc3C2=O)cc1, the Potency was active: 0.0536 µM.
For Cc1ccc(CNC(=O)CSC2=Nc3ccccc3C3=NC(C)C(=O)N23)cc1 (stereo not drawn), the “activity change, negative = inhibition” value was inactive: -7.16%.
For Cc1cc(Cl)ccc1NC(=O)c1cc2ccccn2n1, the Potency was active: 4.78 µM.
For NS(=O)(=O)c1cccc(NC(=O)CSc2nc3ccc(Cl)cc3[nH]2)c1, the Potency was inconclusive: 26.9 µM [inhibitor, single point].
CC1=NN(c2nc(-c3ccccc3)cs2)C(=O)C1N=Nc1ccccc1 (stereo not drawn) was tested, and the Potency was inconclusive: 10.7 µM [inhibitor, partial curve, poor fit].
For CC1CCCN(CCCOc2ccc(Cl)cc2Br)C1 (stereo not drawn), the Potency was inconclusive: 37.9 µM [inhibitor, single point].
Cc1ccc(OCc2nnc(-c3ccccc3)o2)cc1 was tested, and the Potency was active: 16.9 µM.
In the case of Cc1ccc(C(=O)N2c3ccccc3CC2C)o1 (stereo not drawn), the Potency is reported as active: 7.57 µM.
Cc1ccc2[nH]c3c(=O)n(CCc4cnc[nH]4)cnc3c2c1 was tested, and the Potency was inconclusive: 16.9 µM [inhibitor, partial curve, poor fit].
With CCOC(=O)Oc1ccc2c(=O)c(Oc3cccc(C)c3)coc2c1 the Potency was inconclusive: 37.9 µM [inhibitor, partial curve, poor fit].
For Cc1ccccc1NC(=O)CSc1nnc(-c2ccco2)c(-c2ccco2)n1, the Potency was inconclusive: 16.9 µM [inhibitor, partial curve, poor fit].
In the case of CC(=O)Nc1cccc(OCc2ccc(F)cc2)c1, the Potency is reported as inconclusive: 21.3 µM [inhibitor, single point].
For CCCc1cc(=O)[nH]c(SCC(=O)Nc2cccc(S(=O)(=O)N3CCCCC3)c2)n1, the “activity change, negative = inhibition” value was inactive: -7.35%.
In the case of c1csc(CNc2ccc3c(c2)OCCO3)c1, the Potency is reported as active: 26.9 µM.
For O=C(Nc1ccccc1)Nc1ccc2ncoc2c1, the Potency was active: 12 µM.
O=C(c1cn(-c2ccccc2)nc1-c1ccc(Cl)cc1)N1CCOCC1 was tested, and the Potency was inconclusive: 23.9 µM [inhibitor, partial curve, poor fit].
For COc1ccc(-n2c(CCC(=O)O)ccc2-c2ccccc2)c(OC)c1, the Potency was inconclusive: 21.3 µM [inhibitor, partial curve, poor fit].
In the case of CCCCc1ccc(NC(=S)NCc2cccs2)cc1, the Potency is reported as inconclusive: 37.9 µM [inhibitor, partial curve, poor fit].
In the case of CCCCc1ccc(NC(=O)CSc2nnc3[nH]c(=O)cc(C)n23)cc1, the Potency is reported as active: 15.1 µM.
In the case of CC1CCCC(C)N1CC(O)Cn1c2ccccc2c2ccccc21 (stereo not drawn), the “activity change, negative = inhibition” value is reported as inactive: 2.18%.
For CCCN1CCN(CCCNC(=O)c2ccc(CS(=O)c3ccc(OC)cc3)o2)CC1 (stereo not drawn), the Potency was “inactive”.
For COc1ccccc1Nc1nc2c(s1)CCC2, the Potency was active: 15.1 µM.
For N#CCN(N=Nc1ccccc1)c1ccccc1, the Potency was inconclusive: 23.9 µM [inhibitor, single point].
For N#CCCSc1ccccc1NC(=O)c1ccc(S(=O)(=O)N2CCCC2)cc1, the Potency was inconclusive: 12 µM [inhibitor, partial curve].
O=C(Nc1ccc2c(c1)OCCO2)c1ccc(Cl)c(Cl)c1 was tested, and the Potency was active: 4.78 µM.
With O=C(/C=C/c1ccco1)Nc1cccnc1 the Potency was active: 19 µM.
Cc1cccc(S(=O)(=O)Nc2ccc(-c3nc4ccc(C)cc4s3)cc2)c1 was tested, and the Potency was active: 3.01 µM.
CCN(CC)C(=O)c1nc[nH]c1C(=O)N1CCN(c2ccccc2)CC1 was tested, and the “activity change, negative = inhibition” value was inactive: 4.56%.
In the case of Cc1nn(C)cc1S(=O)(=O)Nc1ccc2c(c1)OCCO2, the Potency is reported as inconclusive: 26.9 µM [inhibitor, single point].
For Cc1occc1C(=O)Nc1cccc2ccccc12, the Potency was active: 2.69 µM.
COc1cc2[nH]c(=S)n(C3CCCC3)c(=O)c2cc1OC was tested, and the Potency was inconclusive: 30.1 µM [inhibitor, partial curve, poor fit].
In the case of Clc1ccc(OCc2nnc(SCc3nnc(-c4ccccc4)o3)o2)c(Cl)c1, the Potency is reported as inconclusive: 26.9 µM [inhibitor, single point].
COc1cc(/C=N/N=C2/NC(=O)C(CC(=O)O)S2)ccc1OCc1cccc(Cl)c1 (stereo not drawn) was tested, and the Potency was inconclusive: 19 µM [inhibitor, partial curve, poor fit].
CN=C1S/C(=C\c2ccc(N3CCOCC3)c(F)c2)C(=O)N1C was tested, and the Potency was inconclusive: 12 µM [inhibitor, partial curve, poor fit].
With O=C(COc1ccc2c(-c3ccccc3)cc(=O)oc2c1)NCCCN1CCOCC1 the Potency was inconclusive: 26.9 µM [inhibitor, partial curve, poor fit].
With CS(=O)(=O)Oc1ccccc1/C=C1/N=C(c2ccc(F)cc2)OC1=O the Potency was inconclusive: 30.1 µM [inhibitor, partial curve, poor fit].
Cc1cc(NC(=O)c2ccc(C)s2)n(-c2nc3ccccc3[nH]2)n1 was tested, and the Potency was inconclusive: 30.1 µM [inhibitor, partial curve, poor fit].
O=[N+]([O-])c1ccc(/C=N/NC(=S)Nc2ccccc2)o1 was tested, and the Potency was inconclusive: 21.3 µM [inhibitor, partial curve, poor fit].
For COc1ccccc1CNC(=O)c1cc2ccc3ccc(C)[nH]c3c2n1, the Potency was inconclusive: 23.9 µM [inhibitor, partial curve, poor fit].
With CC[C@H](C)[C@H](NC(=O)OCc1ccccc1)C(=O)OCC(=O)Nc1ccc(N2CCOCC2)cc1 the Potency was inconclusive: 21.3 µM [inhibitor, single point].
For O=C(CSCc1ccc(F)cc1)Nc1ccccc1, the “activity change, negative = inhibition” value was inactive: -21.8%.
